Laboratory results from patent US11884956B2, “Methods for detecting mycobacteria with solvatochromic dye conjugates” (priority 2016, dated 2024).

Experiments:
heat-killed Msmeg cells = assay: DMN-Tre labeling of heat-killed Msmeg; conditions: culture filtrates from live Msmeg plus heat-killed cells plus DMN-Tre, flow cytometry; FIG. 13D
Description: Current microscopy-based methods for TB diagnosis cannot distinguish live from dead mycobacteria. Given that DMN-Tre labeling appears to be of metabolic nature and depend on mycomembrane biosynthesis, it was hypothesized that the methods of the present disclosure would be specific for live bacteria. Indeed, labeling was abrogated by heat killing Msmeg (FIGS. 13A and 13B). […] An interesting question is whether active Ag85 protein released by live cells can cause mycomembrane labeling of nearby dead cells in the presence of DMN-Tre. To answer this question, the culture filtrates from live Msmeg were incubated in growth phase with heat-killed Msmeg cells in the presence of DMN-Tre and analyzed fluorescence of the dead cells by flow cytometry.
Following metabolic labeling (and after fixation for Mtb cells), cells were harvested by centrifugation (3 min, 3,300×g), washed (2×500 microliter (μL) PBS) and resuspended in 300 μL PBS. Fluorescence measurements were taken in 5-mL culture tubes (FisherSci, 14-959A) suitable for flow cytometry. […] This instrument is equipped with a 405 nm violet laser and 488 nm blue laser (for Aqua Amine and FITC channels, respectively) both used to detect DMN-Tre fluorescence. Fluorescence data was obtained for 100,000 cells per sample and processed using FlowJo (Tree Star) software. […]

[1] = tested on: Msmeg in stationary phase; assay: Growth phase studies; format: cell-based, Mycobacterium smegmatis; conditions: 30 minutes; FIG. 13C

CN(C)c1ccc2c3c(cccc13)C(=O)N(C[C@H]1O[C@H](O[C@H]3O[C@H](CO)[C@@H](O)[C@H](O)[C@H]3O)[C@H](O)[C@@H](O)[C@@H]1O)C2=O [DMN-Tre, 4-N,N-dimethylamino-1,8-naphthalimide-conjugated trehalose]
trans-labeling of dead cells by culture filtrates from live Msmeg (heat-killed Msmeg cells): no such trans-labeling was observed above the level of autofluorescence
labeling in stationary phase versus log phase [1]: continue to label with DMN-Tre, albeit at lower intensity levels than Msmeg in log phase
